Reference: patent publication US7592316B2, “Peptides as NS3-serine protease inhibitors of hepatitis C virus” (Schering Corporation, priority 2000, dated 2009)
*1 amine or outer side, *2 acyl side, *3 side chain or, on linkers, in order; H or OH if unused. Where a SMILES comes first, the peptide text is derived from it. [ ]: non-standard residue; d: D form. The star is where a group is joined. ξ: configuration not given here. Pro(3R,4S-CMe2) = CC1(C)[C@@H]2[C@@H](C(=O)O)NC[C@@H]21; Benzoyl(2-COOH-4,5-Cl2) = O=C(O)c1cc(Cl)c(Cl)cc1C(=O)*; Cyclopropanecarbonyl(1-Ph) = O=C(C1(c2ccccc2)CC1)*; Isobutoxycarbonyl(1S-Me) = CC(C)[C@H](C)OC(=O)*; Pro(4,4-S(CH2)3S) = O=C(O)[C@@H]1CC2(CN1)SCCCS2; Pro(4,4-SCH2CH2S) = O=C(O)[C@@H]1CC2(CN1)SCCS2; ξLeu(ψCOCO) = CC(C)CC(N[*:1])C(=O)C(=O)[*:2]; Pro(4,4-Me2) = CC1(C)CN[C@H](C(=O)O)C1; X12 = CCC[C@H](N[*:1])C(=O)C(=O)[*:2]; X89 = O=C(C(=O)[*:2])C(N[*:1])C1CCCC1; Isobutyloxycarbonyl = CC(C)COC(=O)*; Gly(cPent) = N[C@H](C(=O)O)C1CCCC1; X6 = C=CCCC(N[*:1])C(=O)C(=O)[*:2]; X90 = CSCCC(N[*:1])C(=O)C(=O)[*:2]; ξ2Nal = NC(Cc1ccc2ccccc2c1)C(=O)O; Hyp = O=C(O)[C@@H]1C[C@@H](O)CN1; X2 = CCCC(N[*:1])C(=O)C(=O)[*:2]; dPhg = N[C@@H](C(=O)O)c1ccccc1; Chg = N[C@H](C(=O)O)C1CCCCC1; Phg = N[C@H](C(=O)O)c1ccccc1; Tle = CC(C)(C)[C@H](N)C(=O)O; X22 = CC(C)(C)c1ccc(C*)cc1; ξChg = NC(C(=O)O)C1CCCCC1; ξPhg = NC(C(=O)O)c1ccccc1; Boc = CC(C)(C)OC(=O)*; ξNle = CCCCC(N)C(=O)O; ξPip = O=C(O)C1CCCCN1; CO = O=C([*:1])[*:2]; ξV = CC(C)C(N)C(=O)O; NHtBu = CC(C)(C)N*; Bn = c1ccc(C*)cc1; MEM = COCCOC*

What follows are compounds tested against HCV NS3/NS4A protease (strain 1a) (Hepatitis C virus genotype 1a, UniProt P27958) (assay: biochemical). Conditions: Compounds prepared by Solid Phase Synthesis, Table 3; read-out: Ki* CLASS.

Row | Compound | Ki
1 | CCCC(NC(=O)[C@@H]1C[C@@H](OC(C)(C)C)CN1C(=O)[C@@H](NC(=O)c1c(F)cccc1F)C1CCCCC1)C(=O)C(=O)NCC(=O)NC(C(N)=O)c1cccc(C)c1 (stereo partly shown) | 101 to 1000 nM
2 | CCCC(NC(=O)[C@@H]1C[C@@H](OCc2ccccc2)CN1C(=O)C(NC(=O)c1cc(Cl)c(Cl)cc1C(=O)O)C1CCCCC1)C(=O)C(=O)NCC(=O)N[C@@H](C(N)=O)c1ccccc1 (stereo partly shown) ({Benzoyl(2-COOH-4,5-Cl2)}-[ξChg][Hyp](Bn)[X2]G[dPhg]-NH2) | > 1000 nM
3 | CCCCC(NC(=O)CNC(=O)C(=O)C(CCC)NC(=O)[C@@H]1C[C@@H](OCOCCOC)CN1C(=O)C(NC(=O)C1(c2ccccc2)CC1)C1CCCCC1)C(N)=O (stereo partly shown) ({Cyclopropanecarbonyl(1-Ph)}-[ξChg][Hyp](MEM)[X2]G[ξNle]-NH2) | > 1000 nM
4 | CCCC(NC(=O)[C@@H]1C[C@@H](OCc2ccccc2)CN1C(=O)C(NC(=O)OCC(C)C)C(C)C)C(=O)C(=O)NCC(=O)NC(Cc1ccc2ccccc2c1)C(N)=O (stereo partly shown) (Isobutyloxycarbonyl-[ξV][Hyp](Bn)[X2]G[ξ2Nal]-NH2) | > 1000 nM

Same assay, conditions: HCV protease continuous assay results, Table 1; read-out: Ki* Range

Row | Compound | Ki
5 | C=CCOC(=O)CNC(=O)C(=O)C(CCC)NC(=O)[C@@H]1C[C@@H]2CCCC[C@@H]2N1C(=O)C(NC(=O)OC(C)(C)C)C1CCCCC1 (stereo partly shown) [Example 40] | > 1000 nM
6 | CCCC(NC(=O)[C@@H]1CC2(CN1C(=O)[C@@H](NC(=O)OCC(C)C)[C@@H](C)OCc1ccc(C(C)(C)C)cc1)SCCCS2)C(=O)C(=O)NCC(=O)N[C@H](C(=O)O)c1ccccc1 (stereo partly shown) [Example 114] (Isobutyloxycarbonyl-T(X22)[Pro(4,4-S(CH2)3S)][X2]G[Phg]-OH) | 1 to 100 nM
7 | CCCC(NC(=O)[C@@H]1CC2(CN1C(=O)C(NC(=O)OCC(C)C)C1CCCCC1)SCCS2)C(=O)C(=O)NCC(=O)NC(C(=O)O)c1ccccc1 (stereo partly shown) [Example 78] (Isobutyloxycarbonyl-[ξChg][Pro(4,4-SCH2CH2S)][X2]G[ξPhg]-OH) | 1 to 100 nM
8 | C=CCOC(=O)CNC(=O)C(=O)C(CCC)NC(=O)[C@@H]1CCCN1C(=O)[C@@H](NC(=O)c1nc(OC)ccc1OC)C1CCCCC1 (stereo partly shown) [Example 64] | > 1000 nM
9 | CCCC(NC(=O)[C@@H]1C[C@@H](Oc2cc(-c3ccccc3)nc3cc(OC)ccc23)CN1C(=O)[C@@H](N)C(C)C)C(=O)C(=O)O (stereo partly shown) [Example 340] | > 1000 nM
10 | C=CCOC(=O)CNC(=O)C(=O)C(CCC)NC(=O)[C@@H]1CCCN1C(=O)[C@H](CC1CCCCC1)NC(=O)OC(C)(C)C (stereo partly shown) [Example 59] | > 1000 nM
11 | CSCCC(NC(=O)[C@@H]1CC2(CN1C(=O)[C@@H](NC(=O)OCC(C)C)C(C)(C)C)SCCCS2)C(=O)C(=O)NCC(=O)NC(C(=O)N(C)C)c1ccccc1 (stereo partly shown) [Example 222] (Isobutyloxycarbonyl-[Tle][Pro(4,4-S(CH2)3S)][X90]G[ξPhg]-NMe2) | 1 to 100 nM
12 | CCCC(NC(=O)[C@@H]1CCCN1C(=O)[C@@H](NC(=O)[C@@H](NC(=O)OCC(C)C)C(C)C)C(C)C)C(=O)C(=O)NCC(=O)O (stereo partly shown) [Example 38] (Isobutyloxycarbonyl-VVP[X2]G-OH) | > 1000 nM

Same assay, conditions: Table 4; HCV NS3/NS4A protease, spectrophotometric assay, 30° C., pH 6.5; read-out: Ki* Range

Row | Compound | Ki
13 | CCCC(NC(=O)C1C[C@@H](NC(=O)Nc2ccc(C(C)=O)cc2)CN1C(=O)[C@@H](NC(=O)OCC(C)C)C1CCCCC1)C(=O)C(=O)NCC(=O)N[C@H](C(N)=O)c1ccccc1 (stereo partly shown) | 101 to 1000 nM
14 | CCCC(NC(=O)[C@@H]1CC(C)(C)CN1C(=O)[C@@H](NC(=O)OCC(C)C)C1CCCCC1)C(=O)C(=O)N[C@@H](CO)C(=O)N[C@H](C(=O)O)c1ccccc1 (stereo partly shown) (Isobutyloxycarbonyl-[Chg][Pro(4,4-Me2)][X2]S[Phg]-OH) | 101 to 1000 nM
15 | CCC[C@H](NC(=O)C1CCCCN1C(=O)[C@@H](NC(=O)OCC(C)C)C1CCCCC1)C(=O)C(=O)NCC(=O)N[C@H](C(=O)N(C)C)c1ccccc1 (stereo partly drawn) [iBoc-Chg-Pip-nV- (CO)-G-G(Ph)- N(Me)2] (Isobutyloxycarbonyl-[Chg][ξPip][X12]G[Phg]-NMe2) | > 1000 nM

Same assay, conditions: Table 5; HCV NS3/NS4A protease, 30° C., pH 6.5; read-out: Ki* Range

Row | Ki | Compound
16 | 1 to 100 nM | C=CCCC(NC(=O)[C@@H]1[C@@H]2[C@H](CN1C(=O)[C@@H](NC(=O)NC13CC4CC(CC(C4)C1)C3)C1CCCCC1)C2(C)C)C(=O)C(=O)NCC(=O)OC(C)(C)c1ccccc1 (stereo partly shown)
17 | > 1000 nM | CCCC(NC(=O)[C@@H]1C2C(CN1C(=O)C(NC(=O)OC(C)(C)C)C1CCCCC1)C2(C)C)C(=O)C(=O)NCCC(=O)OC(C)(C)C (stereo partly shown)
18 | > 1000 nM | C=CCNC(=O)C(=O)C(CCC)NC(=O)[C@@H]1[C@@H]2[C@H](CN1C(=O)[C@@H](NC(=O)NC(C)(C)C)C1CCCCC1)C2(C)C (stereo partly shown)

Same assay, conditions: Table 5; HCV NS3/NS4A protease, spectrophotometric assay, 30° C., pH 6.5; read-out: Ki* Range

Row | Compound | Ki
19 | C=CCC(NC(=O)[C@@H]1[C@H]2[C@@H](CN1C(=O)[C@@H](NC(=O)OC(C)(C)C)C(C)(C)C)C2(C)C)C(=O)C(=O)NCC(=O)NCc1ccc([N+](=O)[O-])cc1 (stereo partly shown) | 101 to 1000 nM
20 | CCCC(NC(=O)[C@@H]1CC(C)(C)CN1C(=O)[C@H](NC(=O)OC(C)(C)C)C(C)(C)C)C(=O)C(=O)OC(C)(C)C (stereo partly shown) | > 1000 nM
21 | CC(C)CC(NC(=O)[C@@H]1CC(C)(C)CN1C(=O)[C@@H](NC(=O)O[C@@H](C)C(C)C)C(C)(C)C)C(=O)C(=O)NCC(=O)N[C@H](C(=O)N(C)C)c1ccccc1 (stereo partly drawn) ({Isobutoxycarbonyl(1S-Me)}-[Tle][Pro(4,4-Me2)][ξLeu(ψCOCO)]G[Phg]-NMe2) | 1 to 100 nM
22 | C=CCCC(NC(=O)[C@@H]1[C@@H]2[C@H](CN1C(=O)[C@@H](NC(=O)OC(C)(C)C)C1CCCC1)C2(C)C)C(=O)C(=O)NCC(=O)N[C@H](C(=O)N(C)C)c1ccccc1 (stereo partly drawn) (Boc-[Gly(cPent)][Pro(3R,4S-CMe2)][X6]G[Phg]-NMe2) | 1 to 100 nM
23 | C=CCNC(=O)C(=O)C(CCC)NC(=O)[C@@H]1[C@H]2[C@@H]3CC[C@@H](C3)[C@H]2CN1C(=O)[C@@H](NC(=O)OCC(C)C)C(C)(C)C (stereo partly shown) | > 1000 nM

More lines, now with the values ahead:

Row | Ki | Compound
24 | 1 to 100 nM | CCCC(NC(=O)[C@@H]1[C@@H]2[C@H](CN1C(=O)[C@@H](NC(=O)[C@H](CC(C)C)NS(C)(=O)=O)C1CCCCC1)C2(C)C)C(=O)C(N)=O (stereo partly shown)
25 | 101 to 1000 nM | CC(C)OC(=O)N[C@H](C(=O)N1C[C@H]2[C@@H]([C@H]1C(=O)NC(CC1CC1)C(=O)C(=O)O)C2(C)C)C1Cc2ccccc2C1 (stereo partly shown)
26 | 101 to 1000 nM | C=CCCC(NC(=O)[C@@H]1[C@H]2[C@@H](CN1C(=O)[C@@H](NC(=O)OC(C)(C)C)C(C)(C)C)C2(C)C)C(=O)C(N)=O (stereo partly shown)
27 | > 1000 nM | CC(C)(CO[Si](C)(C)C(C)(C)C)OC(=O)N[C@H](C(=O)N1C[C@H]2[C@@H]([C@H]1C(=O)NC(CC1CC1)C(=O)C(N)=O)C2(C)C)C1CCCCC1 (stereo partly shown)
28 | 101 to 1000 nM | CCCC(NC(=O)[C@@H]1C2C(CN1C(=O)[C@@H](NC(=O)NC1CCCCC1)C1Cc3ccccc3C1)C2(C)C)C(=O)C(N)=O (stereo partly shown)
29 | 1 to 100 nM | CC(C)(C)NC(=O)N[C@H](C(=O)N1C[C@@H]2[C@H]([C@H]1C(=O)NC(CC1CC1)C(=O)C(N)=O)C2(C)C)C1Cc2ccccc2C1 (stereo partly shown)

Same assay, conditions: Table 6; HCV NS3/NS4A protease, 30° C., pH 6.5; read-out: Ki*

Row | Compound | Ki
30 | CC(C)(C)NC(=O)N[C@H](C(=O)N1C[C@H]2[C@@H]([C@H]1C(=O)NC(CC1CC1(F)F)C(=O)C(N)=O)C2(C)C)C(C)(C)C (stereo partly shown) | 1 to 100 nM
31 | CN(C)C(=O)[C@@H](NC(=O)CNC(=O)C(=O)C(NC(=O)[C@@H]1[C@@H]2[C@H](CN1C(=O)[C@@H](NC(=O)NC(C)(C)C)C(C)(C)C)C2(C)C)C1CCCC1)c1ccccc1 (stereo partly drawn) ({NHtBu-CO}-[Tle][Pro(3R,4S-CMe2)][X89]G[Phg]-NMe2) | 1 to 100 nM
32 | CC(C)(C)NC(=O)N[C@H](C(=O)N1C[C@H]2[C@@H]([C@H]1C(=O)NC(CC1CC1)C(=O)C(N)=O)C2(F)F)C(C)(C)C (stereo partly shown) | 101 to 1000 nM

More lines, now with the values ahead:

Row | Ki | Compound
33 | 1 to 100 nM | C#CCCC(NC(=O)[C@@H]1[C@@H]2[C@H](CN1C(=O)[C@@H](NC(=O)OC(C)(C)C)C1CCCCC1)C2(C)C)C(=O)C(=O)NCCC=C (stereo partly shown)
34 | 1 to 100 nM | CC(C)(CF)NC(=O)N[C@H](C(=O)N1C[C@H]2[C@@H]([C@H]1C(=O)NC(CC1CC1)C(=O)C(N)=O)C2(C)C)C(C)(C)C (stereo partly shown)
